According to the supplement of paper PMC10369915:
This is one part of the list. Cut-off read from the data, not from the text of the source: active = 3.2 or more and inactive = the rest. Only a few entries rise above the background.

Assays:
Assay in all cases: enrichment score (SH2-bound / input frequency) (ratio); bacterial display of known human phosphotyrosine sites (pTyr-Var adds point mutants) read by sequencing; higher = stronger binding; tyrosines were phosphorylated by kinases first
Conditions in all cases: peptide library: pTyr-Var
SHP2 C-SH2 domain E139D = target: SHP2 C-SH2 domain E139D
[1] = target: SHP2 C-SH2 domain wild-type
SHP2 N-SH2 domain L43F = target: SHP2 N-SH2 domain L43F
SHP2 N-SH2 domain T42A = target: SHP2 N-SH2 domain T42A
SHP2 N-SH2 domain T52S = target: SHP2 N-SH2 domain T52S
[2] = target: SHP2 N-SH2 domain wild-type

Measured: enrichment score
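Note: displayed peptides selected on beads carrying the immobilized SH2 domain, with library peptides lacking any tyrosine serving as negative controls.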

RSRQIYDAFIM [GRK3_Y109_YF]
inactive: SHP2 C-SH2 domain E139D 0.754 | [1] 0.745 | SHP2 N-SH2 domain L43F 0.776 | SHP2 N-SH2 domain T42A 0.622 | SHP2 N-SH2 domain T52S 0.522 | [2] 0.725

ILCTVYAFKTR [GRM3_Y754]
inactive: SHP2 C-SH2 domain E139D 1.15 | [1] 1.07 | SHP2 N-SH2 domain L43F 1.17 | SHP2 N-SH2 domain T42A 1.02 | SHP2 N-SH2 domain T52S 1.35 | [2] 1.16

RKETFYTLSCR [GUCY2C_Y681]
inactive: SHP2 C-SH2 domain E139D 0.771 | [1] 1.73 | SHP2 N-SH2 domain L43F 1.05 | SHP2 N-SH2 domain T42A 0.521 | SHP2 N-SH2 domain T52S 0.526 | [2] 1.04

GAAMLYYPSVS [GPR143_Y177]
inactive: SHP2 C-SH2 domain E139D 1.05 | [1] 0.834 | SHP2 N-SH2 domain L43F 1.03 | SHP2 N-SH2 domain T42A 0.815 | SHP2 N-SH2 domain T52S 1.03 | [2] 1.16

DNLSNYVFQGQ [GRIN2A_Y978_N976S]
inactive: SHP2 C-SH2 domain E139D 0.866 | [1] 0.817 | SHP2 N-SH2 domain L43F 0.726 | SHP2 N-SH2 domain T42A 0.613 | SHP2 N-SH2 domain T52S 1.03 | [2] 0.738

PDGVEYLKNDP [GRIN3A_Y831]
inactive: SHP2 C-SH2 domain E139D 0.687 | [1] 0.83 | SHP2 N-SH2 domain L43F 0.964 | SHP2 N-SH2 domain T42A 0.731 | SHP2 N-SH2 domain T52S 0.699 | [2] 0.489

FISLIYTNFEV [GSTP1_Y109_A114V_YF]
inactive: SHP2 C-SH2 domain E139D 2.06 | [1] 2.35 | SHP2 N-SH2 domain L43F 1.67 | SHP2 N-SH2 domain T42A 1.86 | SHP2 N-SH2 domain T52S 2.28 | [2] 2.79

KDKLPYPYDDP [GPX2_Y125]
inactive: SHP2 C-SH2 domain E139D 0.562 | [1] 0.57 | SHP2 N-SH2 domain L43F 0.651 | SHP2 N-SH2 domain T42A 0.581 | SHP2 N-SH2 domain T52S 0.626 | [2] 0.709

DLWEKYMDCGG [HAP1_Y440_R437W]
inactive: SHP2 C-SH2 domain E139D 1.38 | [1] 2.24 | SHP2 N-SH2 domain L43F 1.64 | SHP2 N-SH2 domain T42A 1.59 | SHP2 N-SH2 domain T52S 1.23 | [2] 2.14

YFRDGYMPRQY [GSS_Y270]
inactive: SHP2 C-SH2 domain E139D 0.606 | [1] 0.537 | SHP2 N-SH2 domain L43F 0.521 | SHP2 N-SH2 domain T42A 0.563 | SHP2 N-SH2 domain T52S 0.808 | [2] 0.79

HHFAAYFQQGD [GPI_Y351_R347H]
inactive: SHP2 C-SH2 domain E139D 1.89 | [1] 1.81 | SHP2 N-SH2 domain L43F 2.19 | SHP2 N-SH2 domain T42A 2.19 | SHP2 N-SH2 domain T52S 1.96 | [2] 1.82

FASTGYGIAIQ [GRIN2B_Y762]
inactive: SHP2 C-SH2 domain E139D 1.02 | [1] 0.953 | SHP2 N-SH2 domain L43F 0.986 | SHP2 N-SH2 domain T42A 0.895 | SHP2 N-SH2 domain T52S 0.931 | [2] 1.03

PEVCDYGLGGG [GSTO1_Y239_A236V]
inactive: SHP2 C-SH2 domain E139D 0.524 | [1] 0.884 | SHP2 N-SH2 domain L43F 0.93 | SHP2 N-SH2 domain T42A 0.673 | SHP2 N-SH2 domain T52S 0.251 | [2] 0.657

EGNEQYEGFCV [GRIA3_Y451_R450Q_YF]
inactive: SHP2 C-SH2 domain E139D 0.563 | [1] 0.494 | SHP2 N-SH2 domain L43F 0.69 | SHP2 N-SH2 domain T42A 0.486 | SHP2 N-SH2 domain T52S 0.587 | [2] 0.692

ALTDNYMFVVI [HAGH_Y61_L64V_YF]
inactive: SHP2 C-SH2 domain E139D 0.673 | [1] 0.805 | SHP2 N-SH2 domain L43F 0.757 | SHP2 N-SH2 domain T42A 0.868 | SHP2 N-SH2 domain T52S 0.634 | [2] 0.925

LTSVKYLLSAT [GSDMC_Y26_P23S]
inactive: SHP2 C-SH2 domain E139D 1.65 | [1] 1.16 | SHP2 N-SH2 domain L43F 1.32 | SHP2 N-SH2 domain T42A 1.52 | SHP2 N-SH2 domain T52S 1.52 | [2] 1.31

KSRQIYDAFIM [GRK3_Y109_R104K_YF]
inactive: SHP2 C-SH2 domain E139D 1.02 | [1] 0.778 | SHP2 N-SH2 domain L43F 1 | SHP2 N-SH2 domain T42A 0.998 | SHP2 N-SH2 domain T52S 1.15 | [2] 1

GHNDVYISEHV [GRIN2A_Y1423]
inactive: SHP2 C-SH2 domain E139D 0.913 | [1] 0.682 | SHP2 N-SH2 domain L43F 1.05 | SHP2 N-SH2 domain T42A 0.618 | SHP2 N-SH2 domain T52S 0.725 | [2] 0.921

SSWKLYPRMLR [HAO1_Y50_R46S]
inactive: SHP2 C-SH2 domain E139D 0.699 | [1] 0.47 | SHP2 N-SH2 domain L43F 0.471 | SHP2 N-SH2 domain T42A 0.629 | SHP2 N-SH2 domain T52S 0.576 | [2] 0.624

VKPHRYRPGTV [H3-5_Y41]
inactive: SHP2 C-SH2 domain E139D 0.37 | [1] 0.276 | SHP2 N-SH2 domain L43F 0.317 | SHP2 N-SH2 domain T42A 0.344 | SHP2 N-SH2 domain T52S 0.289 | [2] 0.39

KHVMPYAANKN [GRIN2A_Y1431_E1426K]
inactive: SHP2 C-SH2 domain E139D 1.59 | [1] 1.45 | SHP2 N-SH2 domain L43F 1.42 | SHP2 N-SH2 domain T42A 1.14 | SHP2 N-SH2 domain T52S 1.73 | [2] 1.3

GRQVIYTENER [GPR143_Y231_G229V]
inactive: SHP2 C-SH2 domain E139D 0.647 | [1] 0.759 | SHP2 N-SH2 domain L43F 0.629 | SHP2 N-SH2 domain T42A 0.682 | SHP2 N-SH2 domain T52S 0.614 | [2] 0.759

LDAFIYDAALL [GRIN2A_Y730_V734L]
inactive: SHP2 C-SH2 domain E139D 0.849 | [1] 0.959 | SHP2 N-SH2 domain L43F 0.855 | SHP2 N-SH2 domain T42A 1.08 | SHP2 N-SH2 domain T52S 0.863 | [2] 0.848

RSRQIYDAYIM [GRK3_Y109]
inactive: SHP2 C-SH2 domain E139D 0.992 | [1] 0.801 | SHP2 N-SH2 domain L43F 1.16 | SHP2 N-SH2 domain T42A 0.907 | SHP2 N-SH2 domain T52S 1.12 | [2] 1.1

YFWDGYMPRQY [GSS_Y270_R267W]
inactive: SHP2 C-SH2 domain E139D 0.988 | [1] 0.973 | SHP2 N-SH2 domain L43F 0.874 | SHP2 N-SH2 domain T42A 0.918 | SHP2 N-SH2 domain T52S 1.02 | [2] 0.966

SNMPSYSGHFT [GRIN2A_Y1224_T1223S]
inactive: SHP2 C-SH2 domain E139D 0.816 | [1] 0.658 | SHP2 N-SH2 domain L43F 0.678 | SHP2 N-SH2 domain T42A 0.825 | SHP2 N-SH2 domain T52S 0.803 | [2] 0.815

GRQGIYTENKR [GPR143_Y231_E235K]
inactive: SHP2 C-SH2 domain E139D 0.694 | [1] 0.66 | SHP2 N-SH2 domain L43F 0.678 | SHP2 N-SH2 domain T42A 0.458 | SHP2 N-SH2 domain T52S 0.574 | [2] 0.597

SVSVNYGDQVQ [GRAP_Y101]
inactive: SHP2 C-SH2 domain E139D 0.649 | [1] 0.733 | SHP2 N-SH2 domain L43F 0.758 | SHP2 N-SH2 domain T42A 0.747 | SHP2 N-SH2 domain T52S 1.02 | [2] 0.995

LIDSSYLTPTA [GREB1L_Y1063_R1066P]
inactive: SHP2 C-SH2 domain E139D 0.759 | [1] 1.2 | SHP2 N-SH2 domain L43F 1.3 | SHP2 N-SH2 domain T42A 1.27 | SHP2 N-SH2 domain T52S 1.2 | [2] 1.18

SRWKLYPRMLR [HAO1_Y50]
inactive: SHP2 C-SH2 domain E139D 0.234 | [1] 0.259 | SHP2 N-SH2 domain L43F 0.246 | SHP2 N-SH2 domain T42A 0.312 | SHP2 N-SH2 domain T52S 0.175 | [2] 0.319

PLYRKYWPNHI [GREB1L_Y1560]
inactive: SHP2 C-SH2 domain E139D 1.15 | [1] 0.735 | SHP2 N-SH2 domain L43F 0.943 | SHP2 N-SH2 domain T42A 0.792 | SHP2 N-SH2 domain T52S 1.13 | [2] 0.967

QRVLLYVRRET [GRHL3_Y518]
inactive: SHP2 C-SH2 domain E139D 0.254 | [1] 0.306 | SHP2 N-SH2 domain L43F 0.177 | SHP2 N-SH2 domain T42A 0.118 | SHP2 N-SH2 domain T52S 0.209 | [2] 0.192

ALTDNYMFLVI [HAGH_Y61_YF]
inactive: SHP2 C-SH2 domain E139D 0.721 | [1] 1.01 | SHP2 N-SH2 domain L43F 0.648 | SHP2 N-SH2 domain T42A 0.88 | SHP2 N-SH2 domain T52S 0.609 | [2] 1.16

CLNAIYQNNLT [GSR_Y158_R153C]
inactive: SHP2 C-SH2 domain E139D 1.27 | [1] 1.12 | SHP2 N-SH2 domain L43F 0.999 | SHP2 N-SH2 domain T42A 0.936 | SHP2 N-SH2 domain T52S 0.936 | [2] 1.14

RAILDYIASKF [GSTA3_Y74_N73D_YF]
inactive: SHP2 C-SH2 domain E139D 1.5 | [1] 1.31 | SHP2 N-SH2 domain L43F 1.31 | SHP2 N-SH2 domain T42A 1.32 | SHP2 N-SH2 domain T52S 1.23 | [2] 1.44

RMGNLYDIDEN [GRIN2A_Y1246_D1251N]
inactive: SHP2 C-SH2 domain E139D 1.07 | [1] 1.41 | SHP2 N-SH2 domain L43F 1.34 | SHP2 N-SH2 domain T42A 1.05 | SHP2 N-SH2 domain T52S 0.797 | [2] 1.5

EKMWTYMRSAE [GRIA4_Y695]
inactive: SHP2 C-SH2 domain E139D 1.19 | [1] 0.87 | SHP2 N-SH2 domain L43F 0.879 | SHP2 N-SH2 domain T42A 0.992 | SHP2 N-SH2 domain T52S 1.02 | [2] 1.01
